From PMC11167000 come the findings set out here.

Numbering of substitutions follows the chain as printed. In names and notes the source's numbering stands. Results are given in words; binding and its absence hold for the method and conditions named. For part of these data: In cells and extracts the contact can be indirect. Some entries that bind do so weakly or less than the wild type. For part of these data: Tags and fused reporters may be left off the sequences shown.

The target of assay [1] is T1, human CHRDL2 (A25–T429) (human) (UniProt Q6WN34).
T1 sequence (chain, Asn-linked glycan (predicted at Asn 114)): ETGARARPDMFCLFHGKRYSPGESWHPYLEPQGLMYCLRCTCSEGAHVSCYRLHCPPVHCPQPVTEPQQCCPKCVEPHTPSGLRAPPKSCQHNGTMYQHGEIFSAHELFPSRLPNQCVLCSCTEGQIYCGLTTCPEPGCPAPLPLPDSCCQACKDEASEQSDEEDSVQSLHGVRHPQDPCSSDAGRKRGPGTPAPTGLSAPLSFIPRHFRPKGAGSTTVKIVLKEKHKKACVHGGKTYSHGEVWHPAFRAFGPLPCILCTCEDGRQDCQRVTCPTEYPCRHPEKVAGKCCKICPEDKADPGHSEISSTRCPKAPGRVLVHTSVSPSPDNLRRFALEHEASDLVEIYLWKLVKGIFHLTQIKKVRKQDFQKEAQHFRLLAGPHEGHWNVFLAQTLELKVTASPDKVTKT
Briefly: SPR; equilibrium binding, Biacore T200, 25 °C; BMP2, BMP7, GDF5 or CHRDL2 amine-coupled to a CM5 chip, TWSG1 proteins as analytes; 0.15 M NaCl, 20 mM HEPES pH 7.5, 2 mM CaCl2, 0.005% Tween 20; 1:1 binding isotherm; both purified. On the technique in general: In SPR one partner is held on a chip, and binding of the other changes the refractive index at the surface.

Assay [2] addresses T2, Decapentaplegic (Dpp)–Screw (Scw) heterodimer, Dpp:HA–Scw:Flag (Drosophila) (UniProt P07713+P54631).
T2 sequence 1: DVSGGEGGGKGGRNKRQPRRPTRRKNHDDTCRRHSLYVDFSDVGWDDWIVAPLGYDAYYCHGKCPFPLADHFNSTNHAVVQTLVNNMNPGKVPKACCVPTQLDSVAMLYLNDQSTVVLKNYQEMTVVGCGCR
T2 sequence 2: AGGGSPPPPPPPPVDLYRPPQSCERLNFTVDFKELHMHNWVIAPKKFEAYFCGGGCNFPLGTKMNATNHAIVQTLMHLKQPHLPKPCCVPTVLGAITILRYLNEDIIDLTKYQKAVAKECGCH
Nature of the assay: co-IP; as a8, but Dpp:HA–Scw:Flag medium mixed with both Sog medium and Tsg (wild-type or I40E) medium.

In assay [3] the target is T2, Decapentaplegic (Dpp)–Screw (Scw) heterodimer, Dpp:HA–Scw:Flag (Drosophila). Briefly: co-IP; conditioned media of transfected S2R+ cells mixed (Dpp:HA–Scw:Flag medium with Sog or Tsg medium alone), 3 hours at room temperature, anti-Flag M2 matrix at 4 °C overnight, washed in 20 mM Tris pH 8, 150 mM NaCl, Western blot.
A further assay addresses T3, Scw:Flag (Drosophila) (UniProt P54631).
T3 sequence: T2 sequence 2
Described as above.

B1: human TWSG1 N-terminal domain (TWSG1 NTD, C26–S83) (domain or fragment, UniProt Q9GZX9 26-83)
chain: ETGCNKALCASDVSKCLIQELCQCRPGEGNCSCCKECMLCLGALWDECCDCVGMCNPRNYS
On to B1, for which, in assay [1], the binding result is on record as “no binding”.

B2: Drosophila Twisted gastrulation, Tsg:His (protein, UniProt P54356 24-249)
chain: DGCNEVVCGSVVSKCLITQSCQCKLNDCHCCKDCLNCLGELYIECCGCLDMCPKHKDVLPSLTPRSEIGDIEGVPELFDTLTAEDDEGWSTIRFSMRAGFKQRVQGGASGDAGNGNGNGNAGSAGVTLCTVIYVNSCIRANKCRQQCESMGASSYRWFHDGCCECVGENCLNYGINESRCRGCPEDQDQLLTADTVPAEAEQDLERFFGNEEIEDEWGYGEEDEFS
For the molecule B2, the binding result in assay [2] is listed as “binds”; in assay [3], “binds weakly”.

B3: Drosophila Twisted gastrulation Ile40Glu, Tsg^I40E:His (protein, UniProt P54356 24-249)
chain: B2 chain with I17E
B3: the binding result in assay [2] and in assay [3] was “no binding” each time.

B4: Dpp:HA (ligand, UniProt P07713 457-588)
chain: T2 sequence 1
Turning to B4, the binding result in the assay with Scw:Flag (Drosophila) was “binds”.
